Paper PMC8948939

Substrate: C[C@@H](c1ncncc1F)[C@](O)(Cn1cncn1)c1ccc(F)cc1F
Assay: not read
Settings: other: N-oxidation of voriconazole, rhCYP3A4, pH 7.5

B1: rhCYP3A4 (Homo sapiens) (protein)
chain: MALIPDLAMETWLLLAVSLVLLYLYGTHSHGLFKKLGIPGPTPLPFLGNILSYHKGFCMFDMECHKKYGKVWGFYDGQQPVLAITDPDMIKTVLVKECYSVFTNRRPFGPVGFMKSAISIAEDEEWKRLRSLLSPTFTSGKLKEMVPIIAQYGDVLVRNLRREAETGKPVTLKDVFGAYSMDVITSTSFGVNIDSLNNPQDPFVENTKKLLRFDFLDPFFLSITVFPFLIPILEVLNICVFPREVTNFLRKSVKRMKESRLEDTQKHRVDFLQLMIDSQNSKETESHKALSDLELVAQSIIFIFAGYETTSSVLSFIMYELATHPDVQQKLQEEIDAVLPNKAPPTYDTVLQMEYLDMVVNETLRLFPIAMRLERVCKKDVEINGMFIPKGVVVMIPSYALHRDPKYWTEPEKFLPERFSKKNKDNIDPYIYTPFGSGPRNCIGMRFALMNMKLALIRVLQNFSFKPCKETQIPLKLSLGGLLQPEKPVVLKVESRDGTVSGA
  Km: 1.20 (0.830–1.58) µM
